According to PubChem BioAssay AID463173 (ICCB-Longwood Screening Facility, Harvard Medical School, 2010):
Out of some 52,000 compounds screened, about 1,700 (3.3%) were called active. No stated cut-off is given here; in the data, active means survival mostly below about 52% (no sharp cut-off); inactive means mostly above about 56%. The list shows a part of the results.

What follows are compounds tested on Wild type (assay: S. aureus survival, RN4220 and DeltatarO strains – OD600, teichoic acid synthesis inhibitors, primary screen (AID 463173)). Details: S. aureus RN4220 wild type/DeltatarO growth, OD600, 18 h, stronger effect = lower value, screened at 18.75 µg/mL (by protocol).

| SMILES | survival |
| --- | --- |
| COc1cccc(NC(=O)C2=C(C)C(=O)OC23CCN(C(C)=O)CC3)c1 | inactive: 79% |
| c1ccc(-c2nnc(SCc3cccnc3)o2)cc1 | inactive: 104% |
| COc1ccccc1C(=O)Nc1cc2c(cc1N1CCCC1)n(C)c(=O)c(=O)n2C | inactive: 72% |
| CCC(=O)N1c2ccc(S(=O)(=O)NCc3ccc(F)cc3)cc2CC1C (stereo not given) | inactive: 81% |
| COc1cc2c(cc1OC)C(COc1ccc3c(C)cc(=O)oc3c1)N(C(=O)c1cc(Cl)ccc1OC)CC2 (stereo not given) | inactive: 72% |
| CCN(CC)C(=O)Cn1nnc2sc(-c3ccccc3)cc2c1=O | inactive: 88% |
| COC(=O)CN1C(=O)CSc2ccc(S(=O)(=O)Nc3cccc(C)c3C)cc21 | inactive: 45% |
| Cc1ccc(CN2CCSc3ccc(C(=O)NCC(C)c4ccccc4)cc32)cc1 (stereo not given) | inactive: 99% |
| Cc1cc2oc(C(=O)Nc3ccc(S(=O)(=O)Nc4ncccn4)cc3)cc(=O)c2cc1C | inactive: 90% |
| CCOC(=O)CSc1ncnc2sc3c(c12)CCC3 | inactive: 100% |
| CCCOc1ccc(CNC(=O)c2ccc(-n3c(C)cc4c3CCC(C)C4)cc2)cc1 (stereo not given) | inactive: 113% |
| Cc1ccc(Cn2cc(S(=O)(=O)c3cccc(Cl)c3)c(=O)c3cc(F)c(N4CCOCC4)cc32)cc1 | inactive: 87% |
| CCOc1ccc(C2NC(=O)c3c(COC)cc(C)nc3N2Cc2ccccc2)cc1OC (stereo not given) | inactive: 167% |
| CCOC(=O)C(O)C(C)(C)CN1C(=O)c2ccccc2C1=O (stereo not given) | inactive: 100% |
| CCN(C(=O)CSc1nc2ccccc2[nH]1)c1ccccc1 | inactive: 81% |
| Cc1ccc(NC(=O)Cn2ccn(-c3ccccc3)c(=O)c2=O)cc1 | inactive: 84% |
| CC(CN1CCCCC1)OC(=O)CCc1ccccc1 (stereo not given) | inactive: 100% |
| Cc1ccc(C)c(N2CCN(C(=O)c3ccc4c(c3)N(Cc3ccc(F)cc3)C(=O)c3ccccc3S4=O)CC2)c1 (stereo not given) | inactive: 85% |
| CC1CCC(Nc2nc3c(-c4cccc(C(F)(F)F)c4)nnn3c3ccccc23)CC1 (stereo not given) | active: -1% |
| COc1cc(OC)c(NC(=O)CCc2c(C)nc3cc(-c4ccccc4OC)nn3c2C)cc1Cl | inactive: 87% |
| CCN(CC)C(C)C#Cc1ccccc1 (stereo not given) | inactive: 102% |
| CC(C)OC(=O)c1c(NC(=O)C2c3ccccc3Oc3ccccc32)sc2c1CCCC2 | inactive: 84% |
| COc1ccccc1-c1noc(CCC(=O)Nc2ccc(C)cc2C)n1 | inactive: 88% |

| SMILES | survival |
| --- | --- |
| Cc1ccc(NC(=O)C2CCCN(S(=O)(=O)c3cn(C(C)C)cn3)C2)c(C)c1 (stereo not given) | inactive: 65% |
| CC1(N)CCS(=O)(=O)C1 (stereo not given) | inactive: 110% |
| CC(=O)c1ccc(Nc2cc(C)nc3nc(Cc4ccc(Cl)cc4)nn23)cc1 | inactive: 88% |
| O=C(Nc1cc2c(cc1C(=O)c1ccccc1Cl)OCCO2)c1ccccc1 | inactive: 127% |
| CC(C)c1nn2c(=O)cc(COC(=O)c3ccccc3NC(=O)C3CCCCC3)nc2s1 | inactive: 72% |
| CCc1ccc2oc(C(=O)Nc3cc(C)ccc3C)cc(=O)c2c1 | inactive: 85% |
| CN(C)c1ccc(CNC(=O)c2ccccc2NC(=O)c2nsc3ccccc23)cc1 | inactive: 80% |
| CC1Cc2ccccc2N1C(=O)CSc1nnc(-c2ccccc2Cl)o1 (stereo not given) | inactive: 45% |
| N#C/C(=C\c1c[nH]c2ccccc12)C(N)=O | inactive: 100% |
| NC(=O)C1CCN(C(=O)C2C3C=CC(O3)C2C(=O)O)CC1 (stereo not given) | inactive: 107% |
| C=CCOc1ccc(CNn2cn[nH]c2=S)cc1 | inactive: 84% |
| CCCN(CCC)CC(O)Cn1cc(/C=C/C(=O)c2ccc(Br)cc2)c2ccccc21 (stereo not given) | inactive: 85% |
| CCn1cc(C(=O)N(C)c2ccc(C(C)C)cc2)c2cc(OC)c(OC)cc2c1=O | inactive: 135% |
| Cc1ccc(CNC(=O)CCNS(=O)(=O)c2cccc3nsnc23)cc1 | inactive: 65% |
| CCc1ccc(NC(=O)Cn2c(=O)n(-c3ccc(OC)cc3)c(=O)c3ccc(C(=O)NCc4ccc(C)cc4)cc32)cc1 | inactive: 132% |
| Cc1c(CCC(=O)N2CCCCC2)c(=O)oc2cc3occ(C(C)(C)C)c3cc12 | inactive: 74% |
| Cc1ccc2nc(NC(=O)CSc3ncc(C(=O)Nc4ccc(F)cc4)c(=O)n3C)sc2c1 | inactive: 121% |
| Cc1ccc(Cc2nc3ccccc3nc2SCC(=O)N2CCN(c3ccc(F)cc3)CC2)cc1 | inactive: 118% |
| CCOC(=O)c1noc2nc(C)n(Cc3cccc([N+](=O)[O-])c3)c(=O)c12 | inactive: 159% |
| COCCn1cc(C(=O)NCCCOC(C)C)c2c3ccccc3n(C)c2c1=O | inactive: 114% |
| COc1ccc(CNC(=O)Cc2ccc(NC(=O)N3CCSc4ncccc43)cc2)cc1 | inactive: 78% |
| CC(C)n1nc(CC(=O)O)c2ccccc2c1=O | inactive: 103% |
| CCc1ccc(-n2nc(C)c3c(C)cc(=O)n(CC(=O)Nc4ccc(F)cc4C)c32)cc1 | inactive: 73% |

| SMILES | survival |
| --- | --- |
| Cc1nnc(SCC(=O)NCc2ccccc2Cl)c2nn(-c3ccccc3)c(C)c12 | inactive: 127% |
| CCc1nn(CC(=O)NC(C)CCc2ccccc2)c(=O)c2cc3c(OC)cccc3n12 (stereo not given) | inactive: 96% |
| CCOC(=O)Cn1c(=O)n(C2CCCCC2)c2nc(-c3ccc(C(C)C)cc3)nc(C(N)=O)c21 | inactive: 55% |
| Cc1ccc2c(CN3CCN(C(=O)c4ccc(Br)cc4)CC3)cc(=O)oc2c1 | inactive: 84% |
| Cc1ccc(S(=O)(=O)N2CCc3cc(C(=O)Nc4c(F)cccc4F)ccc32)cc1 | inactive: 86% |
| CCC(C(=O)N1CCN(c2cc(C)ccc2C)CC1)n1nc(C)n2c(cc3occc32)c1=O (stereo not given) | inactive: 53% |
| Cc1nc(NCC2CCCO2)c2c3c(sc2n1)CCC3 (stereo not given) | inactive: 110% |
| COc1ccccc1NC(=O)CSC1=Nc2ccccc2C2=NC(CC(=O)NCc3ccccc3)C(=O)N12 (stereo not given) | inactive: 70% |
| CCOc1ccc(NC(=O)C2CCCN(c3nnc(C)c4c(C)n(-c5ccccc5)nc34)C2)cc1 (stereo not given) | inactive: 115% |
| Cn1c(=O)c2c(nc(N3CCOCC3)n2Cc2ccc(Br)cc2)n(C)c1=O | inactive: 71% |
| CCC(=O)N(c1nnc(-c2cc(OC)c(OC)c(OC)c2)s1)C1CCCC1 | inactive: 116% |
| COc1ccc(NC(=O)C2CCN(c3ccc(Sc4ccc(C)cc4)nn3)CC2)c(OC)c1 | inactive: 70% |
| Cc1ccc(CN2CCN(C3CCNCC3)C(=O)C2=O)cc1 | inactive: 105% |
| CC(=N/O)/C(=N\O)c1ccc(C)o1 | inactive: 100% |
| O=C(CSc1ccc(-c2ccccn2)nn1)Nc1ccc(F)cc1F | inactive: 82% |
| Cc1ccc(CN2CCN(C3CCN(C(=O)Nc4ccc(C)cc4Cl)CC3)C(=O)C2=O)cc1 | inactive: 95% |
| CC(=O)N1CCc2cc(CNC(=O)c3ccccc3Br)ccc21 | inactive: 85% |
| CCCCNS(=O)(=O)c1ccc(C)c(-c2nnc3c4ccccc4c(C)nn23)c1 | inactive: 79% |
| CNS(=O)(=O)c1cn(CC(=O)Nc2ccc(C(C)=O)cc2)cc1S(=O)(=O)NC | inactive: 73% |
| CC(=O)N1CCc2cc(S(=O)(=O)NC(Cc3ccccc3)C(=O)NCc3ccc(C)cc3)ccc21 (stereo not given) | inactive: 81% |
| O=C(NCc1cccs1)C1CCN(C(=O)N2CCOc3ccc(Cl)cc32)CC1 | inactive: 85% |
| O=C(Nc1ccc(Br)cc1)c1ccc(F)c(S(=O)(=O)N2CCc3ccccc32)c1 | inactive: 81% |
| CCC(=O)N1CCN(c2ccc(N)cc2)CC1 | inactive: 105% |

| SMILES | survival |
| --- | --- |
| COc1ccc(CCNC(=O)C2CCN(S(=O)(=O)c3c(C)noc3/C=C/c3ccc(C)cc3)CC2)cc1OC | inactive: 80% |
| Cc1ccc(S(=O)(=O)C(CNC(=O)C(=O)NCc2ccccc2C)c2cccs2)cc1 (stereo not given) | inactive: 94% |
| CN1CCN(CC(=O)Nc2ccc(C(=O)NCC3CCCO3)cc2)CC1 (stereo not given) | inactive: 108% |
| O=C(OC(C(=O)NCc1ccc2c(c1)OCO2)c1ccncc1)c1ccc(Cl)nc1 (stereo not given) | inactive: 106% |
| CCOC(=O)c1ccc(NC(=O)CCn2ccc(C)n2)cc1 | inactive: 110% |
| Cc1cc(C)c(Cn2c(C3CC(=O)N(c4ccc(F)cc4)C3)nc3ccccc32)c(C)c1 (stereo not given) | inactive: 86% |
| CC(C)C(=O)NS(=O)(=O)c1ccc(NC(=O)c2ccco2)cc1 | inactive: 112% |
| CC(C)OC(=O)c1c(-c2ccccc2)c(-c2ccccc2)nn(C)c1=O | inactive: 112% |
| COc1cccc(NC(=O)CSc2nc(=O)n(Cc3ccncc3)c3c2CCC3)c1 | inactive: 68% |
| C=CC#CC(C)(C)c1ccc(O)c(C)c1 | inactive: 113% |
| CC1=C(C(=O)OC2C3CC4CC(C3)CC2C4)C(CC(=O)O)C(=O)N1 (stereo not given) | inactive: 110% |
| CCNc1nc2c(c(=O)n(Cc3ccccc3)c(=O)n2C)n1Cc1ccccc1 | inactive: 125% |
| CCOC(=O)N1CCC2(CC1)OC(=O)C(C)=C2C(=O)NCc1cccc(F)c1 | inactive: 45% |
| Cc1cc(C)c2c(NCc3ccc(N4CCCCC4)cc3)n[nH]c2n1 | inactive: 115% |
| CCCN1CCN(c2ncnc3sc(C(=O)Nc4c(C)cc(C)cc4C)c(C)c23)CC1 | inactive: 75% |
| CCCc1nc2sc3c(c2c(=O)n1N)CCCC3 | inactive: 93% |
| Cc1cccc(NC(=O)CN2C(=O)c3cccc4cccc2c34)c1C | inactive: 61% |
| CCc1ccc(C(=O)c2cn(CC(=O)Nc3ccc(OC)cc3)c3cc4c(cc3c2=O)OCO4)cc1 | inactive: 72% |
| O=C(CSc1nnc2c3c4c(sc3ncn12)CCCC4)Nc1nccs1 | inactive: 108% |
| O=C(Cn1nnc2c(cnn2-c2ccccc2)c1=O)N(c1ccccc1)c1ccccc1 | inactive: 108% |
| CCC1CN(S(=O)(=O)c2cc(-c3onc(C)c3C)ccc2C)c2cc(Cl)ccc2O1 (stereo not given) | inactive: 81% |
